Hit rate of the full screen: of about 190,000 compounds, about 270 (0.14%) were called active. Inconclusive means that the source gave no clear call. Such entries were picked first, then a sample of the others.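 The calls were made as follows: active = GTP binding activity at least 20% away from the 100% baseline, either lowered as inhibitor or raised as activator; inconclusive = flagged as likely green fluorescent, judged across all proteins in the well; inactive = the rest.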
Molecular target: GTPase HRas (Homo sapiens) (UniProt P01112)
Assay: HRas wt fluorescent GTP binding changes, either direction – biochemical, wildtype, bead-based flow cytometry, multiplex, primary screen (AID 759);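 also: 0% = unlabeled GTP competition control and 100% = no-compound control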
Settings: GST-Ras wt beads, Bodipy-FL-GTP binding, at 10 µM, actives lie on both sides

Chain of UniProt P01112 (P01112 whole entry, looked up): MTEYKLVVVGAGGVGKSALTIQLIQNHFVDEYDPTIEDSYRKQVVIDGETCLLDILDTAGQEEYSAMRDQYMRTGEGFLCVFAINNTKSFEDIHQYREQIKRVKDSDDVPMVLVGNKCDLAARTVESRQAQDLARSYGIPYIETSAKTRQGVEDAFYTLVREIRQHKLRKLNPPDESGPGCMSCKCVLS

Row | SMILES | GTP binding activity
1 | CCOC(=O)c1cccc(NC(=O)CCS(=O)(=O)c2ccc(Br)s2)c1 | inconclusive: 105%
2 | N#C/C(=C/c1ccc(N2CCCCC2)o1)C(=O)Nc1ccc(Cl)cc1 | inconclusive: 108%
3 | C=CCOc1ccc(/C=N/NC(=O)C(C)Sc2ccccn2)cc1OC (stereo unspecified) | inconclusive: 98%
4 | NC(N)=NC1=NC(=O)/C(=C/c2ccccc2-n2cccn2)S1 | inconclusive: 92%
5 | Cc1cc(N/N=C/c2ccc(O)cc2O)nc(-n2nc(C)cc2C)n1 | inconclusive: 59%
6 | CCc1nnc(NS(=O)(=O)c2ccc(N=Cc3c(C)[nH]n(-c4cccc(Cl)c4)c3=O)cc2)s1 | inconclusive: 94%
7 | COc1cccc(OCC(=O)O/N=C(\N)c2ccc(OC)c(OC)c2)c1 | inconclusive: 93%
8 | CNc1nc(-c2ccccn2)nnc1-c1ccccc1 | inconclusive: 103%
9 | O=C(N/N=C/c1cccnc1)c1ccc2c(c1)OCCO2 | inactive: 98%
10 | COCCN1C(=O)/C(=C/c2ccc(N3CCCC3)cc2)SC1=S | inconclusive: 118%
11 | COc1cc2[nH]c(=S)nc(NCCCOC(C)C)c2cc1OC | inconclusive: 72%
12 | CC(=O)NCCn1c(SCC(=O)NCCc2ccc(S(N)(=O)=O)cc2)nc2ccccc2c1=O | inconclusive: 92%
13 | Cc1nn(-c2ccccc2)c2sc(C(=O)O)cc12 | inconclusive: 83%
14 | NS(=O)(=O)c1ccc(CNC(=O)c2csc3c2CCCC3)cc1 | inactive: 101%
15 | CC(C)Cc1nnc(NC(=O)CSc2nc(O)c(Cc3ccccc3)c(=O)[nH]2)s1 | inconclusive: 93%
16 | CN(C(=O)C1CCCO1)c1nnc(-c2ccncc2)s1 (stereo unspecified) | inactive: 96%
17 | Cc1ccc(NC(=S)N(CCN2CCCCC2)Cc2ccco2)cc1Cl | inactive: 96%
18 | CCOC(=O)C1=C(N)Oc2cc(O)ccc2C1c1ccc([N+](=O)[O-])cc1 (stereo unspecified) | inconclusive: 93%
19 | O=C(/C=C/c1ccc(F)cc1)NC(Cc1c[nH]c2ccccc12)C(=O)O (stereo unspecified) | inconclusive: 85%
20 | Cn1c(CNc2nc(-c3ccccc3)cs2)nnc1SCC(=O)c1ccccc1 | inconclusive: 95%
21 | CN(c1ccccc1)S(=O)(=O)c1cccc(C(=O)Nc2nccs2)c1 | inconclusive: 93%
22 | COc1ccc(C2=NN(C(=O)c3cccs3)C(c3ccccc3OC)C2)cc1OC (stereo unspecified) | inconclusive: 90%
23 | CNC(=O)c1cn(-c2ccccc2)c(=O)c2ccccc12 | inconclusive: 103%

Row | SMILES | GTP binding activity
24 | CCOc1cc(/C=N/NC(=O)CSc2cccc3cccnc23)ccc1O | inconclusive: 75%
25 | CCN(c1ccccc1)S(=O)(=O)c1cc(C(=O)OC(C)C(=O)Nc2ccc3c(c2)OCCO3)ccc1C (stereo unspecified) | inconclusive: 90%
26 | O=C(NC1=NCCS1)c1cc(-c2cccnc2)nc2ccccc12 | inconclusive: 92%
27 | CSc1cccc(NC(=O)CSc2ccccc2)c1 | inconclusive: 93%
28 | Cn1c(=O)n(Cc2ccccc2)c(=O)c2c1nc1n2CCN1Cc1ccco1 | inconclusive: 83%
29 | O=C(c1cc2cc([N+](=O)[O-])ccc2oc1=O)N1CCOCC1 | inconclusive: 97%
30 | COc1ccc(C2=NCCn3cccc32)c(OC)c1 | inconclusive: 104%
31 | Cc1cc(Cl)cc(Cl)c1OCC(=O)NCc1ccco1 | inconclusive: 95%
32 | Nc1ncnc(Nc2cccc(Cl)c2Cl)n1 | inactive: 97%
33 | Cc1cc(C)c2oc(C(=O)Nc3ccc(S(=O)(=O)N4CCCC(C)C4)cc3)cc(=O)c2c1 (stereo unspecified) | inactive: 99%
34 | Cc1ccc(-c2csc(NC(=O)c3cccc(S(=O)(=O)N4CCN(C)CC4)c3)n2)cc1 | inconclusive: 92%
35 | CC(C)OC(=O)CSc1nnc(-c2cnccn2)n1Cc1ccco1 | inconclusive: 92%
36 | c1ccc2sc(NC3=NCN(CC4CCCO4)CN3)nc2c1 (stereo unspecified) | inactive: 95%
37 | CC1CCCCN1C(=O)CSc1nc(N)cc(=O)[nH]1 (stereo unspecified) | inconclusive: 104%
38 | CC(=O)c1cccc(NC(=O)N2CCCC2C(=O)NCCC(C)C)c1 (stereo unspecified) | inconclusive: 107%
39 | Cc1ccc(S(=O)(=O)N(CC(O)CN2CCOCC2)c2cc(Cl)ccc2Cl)cc1 (stereo unspecified) | inconclusive: 104%
40 | CCN=C1S/C(=C\c2ccc(OC)c(OCC)c2)C(=O)N1CC | inconclusive: 193%
41 | CC(=O)c1c(C)nc(-c2ccc(Cl)cc2Cl)n1O | inconclusive: 97%
42 | O=C(COC(=O)c1ccccc1C(=O)c1ccccc1)NCc1ccc(F)cc1 | inactive: 94%
43 | C[C@H](NC(=O)OC(C)(C)C)C(=O)NCC1CCC(C(=O)O)CC1 (stereo partly specified) | inconclusive: 105%
44 | CCCC(=O)Oc1ccc(N(C(=O)CCC)S(=O)(=O)c2cccs2)cc1 | inconclusive: 95%
45 | COCCn1cnc2c1c(=O)n(CC(=O)OCC#N)c(=O)n2Cc1ccccc1 | inactive: 93%
46 | CSc1ccccc1NC(=O)CN1CC(C)OC(C)C1 (stereo unspecified) | inactive: 99%

Row | SMILES | GTP binding activity
47 | Cc1cc(C)c(/C([O-])=C(/C(=S)Nc2ccc(SC(F)F)cc2)[n+]2ccccc2)cc1C | inconclusive: 89%
48 | COc1ccccc1NC(=O)C(=O)N(c1cccnc1)C(C(=O)NC(C)(C)C)c1ccccc1F (stereo unspecified) | inconclusive: 96%
49 | c1ccc2c(-c3cn4ccccc4n3)c[nH]c2c1 | inactive: 105%
50 | COc1cc(/C=N/NC(=O)[C@H](Cc2c[nH]c3ccccc23)NC(=O)OCC(C)C)cc([N+](=O)[O-])c1O | inconclusive: 91%
51 | COc1ccc(CCCc2nnc(SCC(=O)N/N=C\c3ccc(O)c(OC)c3)o2)cc1C | inconclusive: 91%
52 | COc1ccccc1/C=C1/SC(=O)N(CCC(=O)Nc2ccc(S(=O)(=O)Nc3nccs3)cc2)C1=O | inconclusive: 93%
53 | COCCn1cnnc1SCC(=O)Nc1sccc1C(N)=O | inconclusive: 93%
54 | COc1ccc(-c2nc(-c3cccs3)c(-c3cccs3)[nH]2)cc1O | inconclusive: 78%
55 | O=[N+]([O-])c1cc(/C=N/N/C(=N/c2ccccn2)c2ccccn2)ccc1O | inconclusive: 90%
56 | Cc1ccc(C)c(C(C)NC(=O)CC#N)c1 (stereo unspecified) | inconclusive: 96%
57 | Cc1cccc(CN2C(=O)CCSc3ccc(Cl)cc32)c1 | inconclusive: 103%
58 | COc1ccc(/C=N/NC(=O)CCSc2nc3ccccc3s2)cc1OC | inconclusive: 93%
59 | Cc1nc2ccc(-c3nc4ccc(N)cc4[nH]3)cc2[nH]1 | inconclusive: 132%
60 | CCCNC(=O)c1ccc(C2SCC(=O)N2CCc2ccccc2)cc1 (stereo unspecified) | inactive: 100%
61 | Cc1cccc(N2CCN(C(=O)Cc3ccc(Br)cc3)CC2)c1C | inconclusive: 93%
62 | COc1ccccc1NC(=S)N(CCCN1CCOCC1)Cc1cccs1 | inactive: 98%
63 | CCOC(=O)C1(Cc2ccccc2)CCCN(CCO)C1 (stereo unspecified) | inconclusive: 112%
64 | COc1ccc(C2C(C(=O)NCc3ccco3)CCC(=O)N2c2ccc(OC)cc2)cc1 (stereo unspecified) | inconclusive: 102%
65 | O=C(Nc1nc(-c2ccccn2)cs1)C1CC(=O)N(c2ccc3c(c2)OCCO3)C1 (stereo unspecified) | inactive: 98%
66 | CCSc1nnc(-c2ccccc2N=Cc2c(C)[nH]n(-c3ccccc3)c2=O)c(=O)[nH]1 | inconclusive: 90%
67 | CC(C)C(=O)N(Cc1cc(=O)[nH]c2ccccc12)c1ccccc1 | inactive: 100%
68 | Cc1ccccc1-n1nnnc1SCC(=O)N(C)C1CCS(=O)(=O)C1 (stereo unspecified) | inactive: 96%
69 | CCSCc1nnc(SCC(=O)Nc2ccc(OC)cc2)n1C | inactive: 99%

Row | SMILES | GTP binding activity
70 | O=C(Cn1c2[n+](c3ccccc31)CC(O)CS2)c1ccccc1 (stereo unspecified) | inactive: 99%
71 | CCOc1ccccc1Nc1nnc(SCC(=O)NC(Cc2c[nH]c3ccccc23)C(=O)O)s1 (stereo unspecified) | inconclusive: 89%
72 | Cc1nc2cc(NC(=O)NC3CC3)ccc2n1C | inconclusive: 97%
73 | Cc1cccc(C(=O)Nc2ccc3c(c2)C(=O)N(CC(C)C)C3=O)c1 | inactive: 96%
74 | Clc1ccc(Cc2nc(-c3ccncc3)no2)cc1 | inconclusive: 93%
75 | O=[N+]([O-])c1cccc(S(=O)(=O)c2ccc(NCCO)c([N+](=O)[O-])c2)c1 | inactive: 97%
76 | CCOc1c(Br)ccc2c1sc1nc[nH]c(=O)c12 | inactive: 97%
77 | c1ccc(-c2nnc3sc(-c4ccncc4)nn23)cc1 | inconclusive: 86%
78 | OCCC1CN(Cc2ccc3c(c2)CCO3)CCN1Cc1ccc(F)cc1 (stereo unspecified) | inconclusive: 97%
79 | Cc1cc(NC(=O)/C(C#N)=C/c2ccc(-c3ccc(SC(F)F)cc3)o2)n(-c2ccccc2)n1 | inconclusive: 123%
80 | COc1ccccc1NC(=O)C1=C(C)NC2=C(C(=O)CCC2)C1c1ccc2c(c1)OCO2 (stereo unspecified) | inconclusive: 103%
81 | Nc1nonc1C(=O)N/N=C/c1ccc(-c2cccc(C(=O)O)c2)o1 | inactive: 92%
82 | Cc1ccc(S(=O)(=O)/N=C(\N)Nc2nc(C)c3ccccc3n2)cc1 | inactive: 96%
83 | COc1cc2[nH]c(=S)nc(NC3CCCC3)c2cc1OC | active: 60%
84 | COc1ccc(/C=N\NC(=O)CCc2c(C)n[nH]c2C)c(OC)c1OC | inconclusive: 103%
85 | CC1=C(C(=O)Nc2ccccc2)C(c2ccc(Cl)cc2)n2c(s/c(=C/c3cccc(OCC(=O)O)c3)c2=O)=N1 (stereo unspecified) | inconclusive: 77%
86 | CC(C)c1[nH]nc2c1C1(CCN(Cc3ccccc3)CC1)C(C#N)=C(N)O2 | inconclusive: 108%
87 | CSc1ccc(S(=O)(=O)Nc2ccc3c(c2)OCCO3)cc1 | inconclusive: 102%
88 | Cc1c(C(O)CN2CCN(Cc3ccc4c(c3)OCO4)CC2)c2ccccc2n1C (stereo unspecified) | inactive: 100%
89 | CCn1c(CNc2cccc(C(F)(F)F)c2)n[nH]c1=S | inactive: 100%
90 | Cc1cc(/C=N/NC(=O)C(=O)NCc2ccccn2)c(C)n1-c1cccc(Br)c1 | inconclusive: 94%
91 | CSc1ncccc1C(=O)OCC(=O)N1CCOCC1 | inconclusive: 448%

From PubChem BioAssay AID759 (NMMLSC, 2007)
